This passage reports binding signal results from paper PMC12136788.

This is one part of the list.

To fix the notation:
T1: UNK ZnF1-6 (called full-length) (human, UniProt Q9C0B0 30-357)
T1 sequence: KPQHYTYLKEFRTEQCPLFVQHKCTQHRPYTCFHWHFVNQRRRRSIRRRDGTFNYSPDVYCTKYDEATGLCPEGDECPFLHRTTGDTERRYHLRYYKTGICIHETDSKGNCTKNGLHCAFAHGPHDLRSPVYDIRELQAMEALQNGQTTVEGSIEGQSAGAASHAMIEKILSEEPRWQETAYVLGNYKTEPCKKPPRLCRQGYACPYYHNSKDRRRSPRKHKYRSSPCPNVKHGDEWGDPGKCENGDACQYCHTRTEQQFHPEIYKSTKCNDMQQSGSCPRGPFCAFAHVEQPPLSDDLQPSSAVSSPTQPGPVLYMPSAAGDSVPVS

B1: chr4:41013971:41014072:-|CDS|ENSG00000163697|msi1|FALSE|unique (ssRNA)
RNA: GGGAGUUCUACAGUCCGACGAUCGCAGGACCCCAACAAAAACCUGAGCCCCACUGCAGUCAUCAACAUAACUUCUGAGAAGUUAGAGGGUAAAGAGCCCCACCCACAGGAUUCCUCGAGCUGUGAGAUUUUACCCUCCCAGCCCAACAGAGGAUUGAGCAUCA
B2: chr2:40113585:40113686:-|3pUTR|ENSG00000183023|msi1|FALSE|unique (ssRNA)
RNA: GGGAGUUCUACAGUCCGACGAUCUCAUUUUAUUUUUUUACUUAAAAGGCUAUUUUGAGCCCUGUUUCUUUCACUGUCCAGUCUAGUCCUCUUUGAUUAUAUCAGUAGUUGCUGAGUAAGAAAGAAGCCAGGGUGACCAACGGGCAACAGAGGAUUGAGCAUCA
B3: chr9:34253332:34253433:-|3pUTR|ENSG00000186638|unk|FALSE|unique (ssRNA)
RNA: GGGAGUUCUACAGUCCGACGAUCCUCUGAAACAGAAUUCACACACAAACCUUCAGCCAAGUUCUGCCUGCUGUGUAUCUUUUUAGCAGGAAGCAGCUCAGGACAGGGAAGACAAAGUAGCCUCCAGGUGCCAAUUACUUUAAACAACAGAGGAUUGAGCAUCA
B4: chr20:37241422:37241523:+|3pUTR|ENSG00000118705|msi1_unk|FALSE|overlapping (ssRNA)
RNA: GGGAGUUCUACAGUCCGACGAUCGUAUGAGAAGAAAAAUGGAAAAAAAAAACUUUAUUUAAAAAAGAAAAAAGUCCAGAUUGUAGUUAUACUUUUGCUUGUUUUUCAGUUUCCCCAACACACAGCAGAUACCUGGUGAGCUCACAACAGAGGAUUGAGCAUCA
B5: chr10:72012227:72012328:+|3pUTR|ENSG00000122863|msi1|FALSE|unique (ssRNA)
RNA: GGGAGUUCUACAGUCCGACGAUCCAAUGGAAGGAGCUUCAGCAGGAGGUCCUUCCCAGAAGGUUGAUUCUUGGCCUGGGUGGUAGAGGAGAUAUCCUGACCCUAAAGUCUUCCAGCCCCGGGUCAUCCUCUCCUAUACUAGGGCAACAGAGGAUUGAGCAUCA
B6: ENSG00000173273:stop:overlap|stop_codon|ENSG00000173273|stop_codon|NA|stop_codon (ssRNA)
RNA: GGGAGUUCUACAGUCCGACGAUCACCAGAUCAUGAAGCCAGAAGCCCCUUCCCAGACCGCAACAGCCGCAGAGCAGAAGACCUAGUGAAUGCCUGCUGGUGAAGGCCAGAUCAGAUUUCAACCUGGGACUGGAUUACAGAGGACAACAGAGGAUUGAGCAUCA
B7: chr13:24434660:24434761:-|CDS|ENSG00000102699|unk|total|mutant (ssRNA)
RNA: GGGAGUUCUACAGUCCGACGAUCCCCUCUGCUUCCUCUCCUUUUCAUUUUCAACCUUCCGCAGCCUCUUUGACUGCCAACCUCCGGCUGCCAAUGGCCUCUGCUUUACCUGAGGCUCUUUGCAGUCAGUCCCGGACUACCCCACAACAGAGGAUUGAGCAUCA
B8: ENSG00000112335:stop:overlap|stop_codon|ENSG00000112335|stop_codon|NA|stop_codon (ssRNA)
RNA: GGGAGUUCUACAGUCCGACGAUCAGGCAAGGAGUCAUGGAAGGACGUGGUGUGCUCAGAAUGAUGAAAAGUUAUUUUGUGACUAGAAAGUCGUAGUUCCCCCGCUCCCUGGGAAAGCGUUUUUGCGUCAGCUUCCUUUUAGAGCAACAGAGGAUUGAGCAUCA
B9: chr1:158329851:158330130:-|CDS|ENSG00000158485|control|control|control (ssRNA)
RNA: GGGAGUUCUACAGUCCGACGAUCCAUAGCAGGCUGUGAGCUACAUUCUGGAGGUGCCAUAGUAAGCUUCCUGAGGGGAGCUCUAGGAGGAUUGGAUUUCCUGAGUGUCAAGAAUGCUUCAUGUGUGCCUUCCCCAGAAGGUGGCAACAGAGGAUUGAGCAUCA
B10: chr15:63774837:63774950:-|CDS|ENSG00000103657|unk|total|mutant (ssRNA)
RNA: GGGAGUUCUACAGUCCGACGAUCGUAACAACAUUUCUUAAAGGAGUCACUAUUCCUAAUUCUGGGGCAGACACUUCCGGUCGCCGAUCCGCUUCUGAGUUGCUGCUUGGUUUGGCAGCUCAACGAGGCUCAUUGCGAUAUCUUCAACAGAGGAUUGAGCAUCA
B11: chr2:209733988:209734100:+|3pUTR|ENSG00000078018|unk|FALSE|unique (ssRNA)
RNA: GGGAGUUCUACAGUCCGACGAUCUCUGAUAAUUCUAGAGCCUGUUACCAUAGAAAGGCAUUUCUUCAAUGGCUGGUUGUAGUUAGUUCAUGUUUUUCAAUCAAAUUUGCAAAUGUAUUUGUUGCUGUAUAGUGAUUGUUUUGCCAACAGAGGAUUGAGCAUCA
B12: chr6:108211900:108211976:-|3pUTR|ENSG00000112335|msi1_unk|FALSE|overlapping (ssRNA)
RNA: GGGAGUUCUACAGUCCGACGAUCGUUGACAAGAAGUUAAUUUGCUUUAGUAAAAAUCCCUCAUUCCAGCCUUUCUAUAUAAAUAGCUCUUUCUUGCUGUUUUAAUGUGGUGCACACUAUAGCCUCACAAACCUGUUAUUCCAGCAACAGAGGAUUGAGCAUCA
B13: chr7:20412070:20412171:+|3pUTR|ENSG00000105855|msi1|FALSE|unique (ssRNA)
RNA: GGGAGUUCUACAGUCCGACGAUCCUUUUUUUUUAUAAUAAACUUCCAAGAUUUGCUGUCUUCCAGCACUUGAGUUAAAGUACUAGAUACUGCAUUUUGAUGAAGACUAACCCCAUCUCAUAUUCUACCCUAAAGAGAACUGAACAACAGAGGAUUGAGCAUCA
B14: chr1:66374421:66374522:+|3pUTR|ENSG00000184588|msi1|total|mutant (ssRNA)
RNA: GGGAGUUCUACAGUCCGACGAUCACUGCAUUGUUUCAGGUGGACAUUUUAUCAUUUUCAAAUGUUUCUCACAAUGUAUGUUACCGUAUUAUUAUUAUAUAUUGUGUUCAAAUGCAUUCUAAAGAGACUUUUAUAUGAGGUGAACAACAGAGGAUUGAGCAUCA
B15: ENSG00000110906:stop:overlap|stop_codon|ENSG00000110906|stop_codon|NA|stop_codon (ssRNA)
RNA: GGGAGUUCUACAGUCCGACGAUCGCUGCCUCCCUUUACUCCCAGUCCCAUUUACAAAAAUAACGUUUGUGUUUUACCAGUUAUAGUUGUAGUACCCAUUCAUUAUAGAAAAUCUGGAAAAGCUAGACAAUUCUUUUUCAGUUUCAACAGAGGAUUGAGCAUCA
B16: chr4:65323451:65323552:-|3pUTR|ENSG00000145242|msi1|total|mutant (ssRNA)
RNA: GGGAGUUCUACAGUCCGACGAUCAUCAAGAAAAAGUACAAUACAGGGUGUAUAUUUAUUUUUUGUGUUAUAAAGUUUACUUUCCGUUGCUCUUCCCGAGAUUAUCCGGUAAUAAAUGUGUAUAUACUGUAUAAUUUGCAAUAUCAACAGAGGAUUGAGCAUCA
B17: chr10:62096657:62096758:+|3pUTR|ENSG00000150347|msi1|total|mutant (ssRNA)
RNA: GGGAGUUCUACAGUCCGACGAUCACCUCUAUGCUCUGUAAGGUGAUUAUUUGUAUACCGCAACAUGGCCCAGUGAUAUUAUACCGUUUCCCAAUGGAGAGGUUAUUGAGUAACCUUUGCAUCCGUUUAAACACUACCAGAAGACAACAGAGGAUUGAGCAUCA
B18: chr1:204554719:204554820:+|3pUTR|ENSG00000198625|unk|FALSE|unique (ssRNA)
RNA: GGGAGUUCUACAGUCCGACGAUCAAGUACUUUCUUUUGACAGAAAUUUUCAUUCUGCUUGCCAUUGCUAUAUUCUCCCUUUAUAGGAGCCAUUGGAUUUCUUUCCUUUUGUGGGAAAUGUCCCAUUAGCAUUUUCAGAUCUUUCAACAGAGGAUUGAGCAUCA
B19: chr3:87253716:87253817:+|CDS|ENSG00000083937|unk|total|mutant (ssRNA)
RNA: GGGAGUUCUACAGUCCGACGAUCUGCCUCUACUUCAAAGGCUACAAUCUCAGAUGAAGAGAUUGAACGGCAACUCAAGGCUUCCGGAGCCGAUCCGUCAAAAGAAGUCAUACUAUUUUGCUUACUUAUAAUUAUGCCGUAUAACAACAGAGGAUUGAGCAUCA
B20: chr15:75505753:75505856:-|CDS|ENSG00000169410|unk|total|mutant (ssRNA)
RNA: GGGAGUUCUACAGUCCGACGAUCGGUGAACGGCCACCCAGAUCCCUUCGAUGAGAUCAUCCUGUUCUCCCUCCCUCCUGCCUCCGACUGGGACUCAGUACAUGUUCCAGGUCCCCAUGCUAUGACCAUCCAAGAGUUGGUGGACAACAGAGGAUUGAGCAUCA
B21: chr9:113264340:113264441:+|3pUTR|ENSG00000136868|msi1|total|mutant (ssRNA)
RNA: GGGAGUUCUACAGUCCGACGAUCAAAGUCUGCAUUUGAUAUAAUGCCUUAAUUACUGGGUCUACAAUUAAUGUUGACUGUUUCCGAUUGUAAGCUCCUGGAGAGCAGUAUUGCUGCCGCCGGAAUGUUUUAACAGUGUCAUAUCAACAGAGGAUUGAGCAUCA
B22: chr1:179108573:179108674:-|CDS|ENSG00000143322|unk|total|mutant (ssRNA)
RNA: GGGAGUUCUACAGUCCGACGAUCAGCCAAGUUAUUGCCCAGAGGAGCCACAGCUCUUCCUCUCAGAACACCCUCUGGGGAUCCCGCCAUUACAGAGAAGGACCCUCCAGGGGUGGGAGUGGCUGGAGUGGCAGCUGCCCCCAACAACAGAGGAUUGAGCAUCA

This test has as its target T1, UNK ZnF1-6 (called full-length). Briefly: nsRBNS (natural sequence RNA bind-n-seq); RBNS binding buffer (assumed for nsRBNS): 25 mM Tris pH 7.5, 150 mM KCl, 3 mM MgCl2, 0.01% Triton X-100, 500 ug/ml BSA, 20 U/ml SUPERase-In, 4 C; UNK is unkempt and MSI1 is Musashi-1; names of the RNAs are library labels; protein concentration not given here; high values mean tight binding.
Turning to B1, the binding signal is 0.874 enrichment R.
Consider B2, for which the binding signal stood at 0.924 enrichment R.
Next, B3: 0.715 enrichment R.
With B4, the binding signal was 0.6 enrichment R.
Regarding B5, the binding signal amounted to 0.684 enrichment R.
The result for B6 reads 1.24 enrichment R; that for B7, 0.906 enrichment R; that for B8, 0.362 enrichment R.
The result for B9 reads 0.764 enrichment R; that for B10, 0.574 enrichment R.
Molecule B11 yielded a binding signal of 1.4 enrichment R.
Next, B12: 0.942 enrichment R; B13: 0.837 enrichment R; B14: 0.73 enrichment R.
Next, B15: 0.563 enrichment R; B16: 0.757 enrichment R; B17: 0.344 enrichment R.
B18 displayed a binding signal of 1.01 enrichment R.
B19 had a binding signal of 0.496 enrichment R.
For the molecule B20, the binding signal amounted to 0.838 enrichment R.
Next, B21: 0.378 enrichment R.
The molecule B22 returned a binding signal of 0.611 enrichment R.
